# The entries are a selection whose mix differs from that of the whole data set. The list includes weakly bound sequences.
# Legend:
# Assay in all cases: protein-binding microarray (PBM)
# Details in all cases: PBM: ~300 nM protein, 6 mM HEPES pH 7.8, 80 mM KCl, 0.5 mM EDTA, 0.5 mM EGTA, 6% glycerol, 35 ng/ul poly-dIdC, 1% milk, 1 h, room temperature; Ap Aiptasia and Nv Nematostella (sea anemones) / Co Capsaspora / Aq Amphimedon (sponge) / Dm Drosophila / Hu human; RHD is the Rel homology domain; high values mean tight binding; most listed sequences are background and not binding sites; double strand, one strand shown
# GST-Ap-NF-kB RHD = biological target: T1, GST-Ap-NF-kB RHD (UniProt A0A913YAJ5)
# T1 sequence: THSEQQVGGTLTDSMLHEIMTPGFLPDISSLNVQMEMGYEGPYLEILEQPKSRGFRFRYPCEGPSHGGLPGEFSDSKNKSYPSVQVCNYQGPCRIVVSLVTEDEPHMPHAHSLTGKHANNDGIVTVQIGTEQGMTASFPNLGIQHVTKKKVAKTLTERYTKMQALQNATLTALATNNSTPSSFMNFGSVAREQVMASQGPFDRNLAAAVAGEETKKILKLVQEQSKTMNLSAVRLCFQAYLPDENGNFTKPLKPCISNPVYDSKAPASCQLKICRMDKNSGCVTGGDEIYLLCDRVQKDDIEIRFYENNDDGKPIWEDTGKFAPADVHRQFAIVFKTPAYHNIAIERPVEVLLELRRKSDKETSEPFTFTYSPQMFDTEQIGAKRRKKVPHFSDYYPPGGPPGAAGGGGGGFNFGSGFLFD
# [1] = biological target: T2, GST-Nv-NF-kB (Cys allele) (UniProt E5G601)
# T2 sequence: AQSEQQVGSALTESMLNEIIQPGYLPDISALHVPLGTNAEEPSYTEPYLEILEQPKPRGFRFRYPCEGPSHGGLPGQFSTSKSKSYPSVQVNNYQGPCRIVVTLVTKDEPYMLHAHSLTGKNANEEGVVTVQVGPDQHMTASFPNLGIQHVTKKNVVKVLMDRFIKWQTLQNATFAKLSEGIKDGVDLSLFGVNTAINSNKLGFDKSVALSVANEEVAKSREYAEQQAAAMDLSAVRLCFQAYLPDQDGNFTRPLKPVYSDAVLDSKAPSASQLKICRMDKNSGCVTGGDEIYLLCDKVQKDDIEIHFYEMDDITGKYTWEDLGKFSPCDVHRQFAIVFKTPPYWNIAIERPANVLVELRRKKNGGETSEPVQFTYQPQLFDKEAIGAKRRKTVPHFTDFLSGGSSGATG
# GST-Co-NF-kB = biological target: T3, GST-Co-NF-kB (UniProt F1ARL5)
# T3 sequence: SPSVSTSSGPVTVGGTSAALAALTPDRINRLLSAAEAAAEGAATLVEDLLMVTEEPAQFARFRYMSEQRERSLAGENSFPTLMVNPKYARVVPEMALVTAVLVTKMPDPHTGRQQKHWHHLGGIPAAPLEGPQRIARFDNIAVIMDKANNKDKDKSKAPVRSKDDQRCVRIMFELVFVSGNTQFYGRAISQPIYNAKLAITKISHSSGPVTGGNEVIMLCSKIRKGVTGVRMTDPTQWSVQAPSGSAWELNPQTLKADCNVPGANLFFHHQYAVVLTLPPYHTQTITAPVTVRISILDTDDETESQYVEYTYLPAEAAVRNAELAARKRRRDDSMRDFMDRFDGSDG
# GST-Dm-Relish = biological target: T4, GST-Dm-Relish (UniProt Q94527)
# T4 sequence: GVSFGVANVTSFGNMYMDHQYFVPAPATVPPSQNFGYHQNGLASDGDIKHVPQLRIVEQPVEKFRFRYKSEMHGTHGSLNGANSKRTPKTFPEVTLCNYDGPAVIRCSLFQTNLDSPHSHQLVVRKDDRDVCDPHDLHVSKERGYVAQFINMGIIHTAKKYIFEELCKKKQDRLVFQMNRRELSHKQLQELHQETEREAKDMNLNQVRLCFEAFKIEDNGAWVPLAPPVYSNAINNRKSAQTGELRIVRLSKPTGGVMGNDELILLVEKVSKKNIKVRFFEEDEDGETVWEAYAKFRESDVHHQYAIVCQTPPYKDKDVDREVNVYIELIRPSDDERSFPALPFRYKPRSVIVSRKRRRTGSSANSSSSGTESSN
# GST-Aq-NF-kB = biological target: T5, GST-Aq-NF-kB (UniProt A9Y5G7)
# T5 sequence: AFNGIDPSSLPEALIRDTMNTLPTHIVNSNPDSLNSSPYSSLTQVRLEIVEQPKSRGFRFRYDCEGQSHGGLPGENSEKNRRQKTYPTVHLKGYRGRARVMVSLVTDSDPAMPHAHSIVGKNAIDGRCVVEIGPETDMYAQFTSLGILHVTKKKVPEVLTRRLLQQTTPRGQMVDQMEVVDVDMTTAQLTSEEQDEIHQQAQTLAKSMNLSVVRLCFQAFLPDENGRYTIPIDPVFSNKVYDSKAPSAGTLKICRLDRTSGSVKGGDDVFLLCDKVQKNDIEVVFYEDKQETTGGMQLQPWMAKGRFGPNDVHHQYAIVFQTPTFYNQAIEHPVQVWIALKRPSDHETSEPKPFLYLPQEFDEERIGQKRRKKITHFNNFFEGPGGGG
Sequence,binding signal (GST-Ap-NF-kB RHD),binding signal [1],binding signal (GST-Co-NF-kB),binding signal (GST-Dm-Relish),binding signal (GST-Aq-NF-kB)
CCGATTAACATCAACTCTATAAGTGATGTTAATCGGGTCTTGATTCGCTTGACGCTGCTG,-0.673 z-score,-0.366 z-score,-0.536 z-score,-0.251 z-score,-0.576 z-score
CCGATTAACATCAATTTCTTATATGATGTTAATCGGGTCTTGATTCGCTTGACGCTGCTG,-1.21 z-score,0.425 z-score,0.869 z-score,-0.262 z-score,-0.111 z-score
CCGATTAACATCAACGACACCACTGATGTTAATCGGGTCTTGATTCGCTTGACGCTGCTG,-0.164 z-score,-0.899 z-score,-0.606 z-score,-0.057 z-score,-0.415 z-score
CCGATTAACATCATAACTGACCTTGATGTTAATCGGGTCTTGATTCGCTTGACGCTGCTG,-0.342 z-score,-0.381 z-score,-0.0873 z-score,-0.329 z-score,-0.349 z-score
CCGATTAACATCAGCACAGACTTTGATGTTAATCGGGTCTTGATTCGCTTGACGCTGCTG,-0.344 z-score,-0.362 z-score,-0.393 z-score,-0.831 z-score,-0.626 z-score
CCGATTAACATCACTGACAGTCATGATGTTAATCGGGTCTTGATTCGCTTGACGCTGCTG,-0.132 z-score,0.245 z-score,-0.792 z-score,-0.513 z-score,-0.435 z-score
CCGATTAACATCACTTCGTGAATTGATGTTAATCGGGTCTTGATTCGCTTGACGCTGCTG,-0.743 z-score,-0.432 z-score,-1.26 z-score,-0.868 z-score,-0.622 z-score
CCGATTAACATCACCGAATTTCCTGATGTTAATCGGGTCTTGATTCGCTTGACGCTGCTG,0.888 z-score,0.173 z-score,0.319 z-score,0.886 z-score,0.97 z-score
CCGATTAACATCAATGAAATTCCTGATGTTAATCGGGTCTTGATTCGCTTGACGCTGCTG,-0.17 z-score,-0.0126 z-score,0.229 z-score,0.61 z-score,0.411 z-score
CCGATTAACATCAGCTCTGGAACTGATGTTAATCGGGTCTTGATTCGCTTGACGCTGCTG,-0.398 z-score,-0.89 z-score,-0.609 z-score,-1.08 z-score,-0.502 z-score
CCGATTAACATCACAGACTCAGTTGATGTTAATCGGGTCTTGATTCGCTTGACGCTGCTG,-0.34 z-score,-0.0902 z-score,-0.498 z-score,-0.156 z-score,-0.573 z-score
CCGATTAACATCATAGCCTGAGCTGATGTTAATCGGGTCTTGATTCGCTTGACGCTGCTG,-0.632 z-score,-0.865 z-score,-0.68 z-score,-0.795 z-score,-0.427 z-score
CCGATTAACATCAGGAAACAATGTGATGTTAATCGGGTCTTGATTCGCTTGACGCTGCTG,-0.0973 z-score,-0.115 z-score,0.917 z-score,0.557 z-score,-0.156 z-score
CCGATTAACATCAGGTTAAGAGGTGATGTTAATCGGGTCTTGATTCGCTTGACGCTGCTG,0.551 z-score,-0.0529 z-score,0.794 z-score,-0.18 z-score,0.107 z-score
CCGATTAACATCACTAACATTCCTGATGTTAATCGGGTCTTGATTCGCTTGACGCTGCTG,0.501 z-score,0.00591 z-score,0.876 z-score,0.439 z-score,0.142 z-score
CCGATTAACATCACCCTACAAGTTGATGTTAATCGGGTCTTGATTCGCTTGACGCTGCTG,0.512 z-score,-0.0481 z-score,3.08 z-score,0.318 z-score,0.932 z-score
CCGATTAACATCAGATACAGGACTGATGTTAATCGGGTCTTGATTCGCTTGACGCTGCTG,0.126 z-score,-0.125 z-score,-0.235 z-score,-0.553 z-score,-0.318 z-score
CCGATTAACATCAACGAAATTCCTGATGTTAATCGGGTCTTGATTCGCTTGACGCTGCTG,-0.0377 z-score,-0.832 z-score,0.202 z-score,0.181 z-score,0.0829 z-score
CCGATTAACATCAGTTAGGCCCATGATGTTAATCGGGTCTTGATTCGCTTGACGCTGCTG,0.262 z-score,-0.68 z-score,-0.694 z-score,-0.701 z-score,0.127 z-score
CCGATTAACATCATCCGCGAGCCTGATGTTAATCGGGTCTTGATTCGCTTGACGCTGCTG,-0.0778 z-score,-0.145 z-score,-0.68 z-score,-0.792 z-score,-0.425 z-score
CCGATTAACATCAGGAAACGCCATGATGTTAATCGGGTCTTGATTCGCTTGACGCTGCTG,0.109 z-score,0.155 z-score,-0.055 z-score,-0.482 z-score,0.111 z-score
CCGATTAACATCACAGTGTCTTCTGATGTTAATCGGGTCTTGATTCGCTTGACGCTGCTG,-0.00472 z-score,-0.276 z-score,-0.693 z-score,-0.223 z-score,-0.487 z-score
CCGATTAACATCACGAGAGAGGATGATGTTAATCGGGTCTTGATTCGCTTGACGCTGCTG,0.457 z-score,0.208 z-score,0.114 z-score,-0.144 z-score,-0.419 z-score
CCGATTAACATCACAAAAAATTTTGATGTTAATCGGGTCTTGATTCGCTTGACGCTGCTG,-0.394 z-score,-0.0942 z-score,-0.376 z-score,2.12 z-score,0.715 z-score
CCGATTAACATCAGAGGAAGTGATGATGTTAATCGGGTCTTGATTCGCTTGACGCTGCTG,-0.126 z-score,0.337 z-score,0.641 z-score,-0.353 z-score,-0.338 z-score

# Source: PMC5700166
